Assay results: paper PMC3114464 (Biochemistry, 2011)

Biological target: T1, IsdA-N1 (NEAT domain of IsdA), apo form (S. aureus, UniProt Q7A655 62-184)
T1 sequence (looked up): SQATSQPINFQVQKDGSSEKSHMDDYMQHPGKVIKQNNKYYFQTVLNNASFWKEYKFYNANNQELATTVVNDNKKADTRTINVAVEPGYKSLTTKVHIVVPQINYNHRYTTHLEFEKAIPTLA
Assay: stopped-flow spectroscopy of heme transfer

B1: IsdB-N2 (second, heme binding, C-terminal NEAT domain of IsdB), wild type (domain or fragment)
chain: not shown
Kd: 18.6 µM
